# Assay results as given in the antibiotic and cytotoxicity screens of Wong et al. (2023).
# Some of the results follow.
# Experiments:
# HSkMC = human skeletal muscle cells; assay: cytotoxicity call (relative viability < 0.9); settings: 10 µM
# HepG2 = assay: cytotoxicity call (relative viability < 0.9); settings: 10 µM
# S. aureus RN4220 = assay: growth inhibition call (relative growth <= 0.2); settings: 50 µM
SMILES,cytotoxicity call (HSkMC),cytotoxicity call (HepG2),growth inhibition call (S. aureus RN4220)
COCCNC(=O)C[C@@H]1C[C@H]2c3cc(NS(C)(=O)=O)ccc3O[C@H]2[C@H](CO)O1,inactive,inactive,inactive
Cc1ccc(S(=O)(=O)Nc2ccc3c(c2)C(=O)N([C@H](C)CO)C[C@@H](C)[C@H](CN(C)Cc2ccc(Cl)c(Cl)c2)O3)cc1,active,inactive,inactive
Cc1noc(C)c1S(=O)(=O)N(C)C[C@@H]1Oc2ccc(N(C)C)cc2CC(=O)N([C@@H](C)CO)C[C@H]1C,inactive,inactive,inactive
CC(C)NC(=O)Nc1ccc2c(c1)C(=O)N([C@@H](C)CO)C[C@@H](C)[C@H](CN(C)Cc1ccc(Oc3ccccc3)cc1)O2,inactive,inactive,inactive
C[C@H](CO)N1C[C@H](C)[C@@H](CN(C)Cc2ccc3c(c2)OCO3)Oc2ncc(Br)cc2C1=O,inactive,inactive,inactive
CS(=O)(=O)NCc1ccsc1,inactive,inactive,inactive
CO[C@@H]1CN(C)C(=O)c2ccc(NC(=O)c3ccc(F)cc3)cc2OC[C@@H](C)N(C(=O)CN(C)C)C[C@H]1C,inactive,inactive,inactive
COc1ccc(S(=O)(=O)N(C)C[C@@H]2Oc3ccc(NS(=O)(=O)c4cccs4)cc3C(=O)N([C@@H](C)CO)C[C@@H]2C)cc1,inactive,active,inactive
C[C@@H]1CN([C@H](C)CO)C(=O)c2cccc(NS(=O)(=O)c3ccc(Cl)cc3)c2O[C@H]1CN(C)S(=O)(=O)c1cn(C)cn1,inactive,inactive,inactive
O=C1O[C@@H](c2ccccc2)[C@@H](c2ccccc2)N2[C@@H](c3ccc(OCCO)cc3)[C@]3(C(=O)Nc4ccccc43)[C@@H](C(=O)NC[C@H](O)c3ccccc3)[C@H]12,inactive,inactive,inactive
C[C@H](CO)N1C[C@H](C)[C@@H](CN(C)S(=O)(=O)c2ccc(Cl)cc2)Oc2ccc(NC(=O)CCCN(C)C)cc2C1=O,inactive,inactive,inactive
Cc1ccc2c(=O)c3ccccc3n(CCCN)c2c1C,inactive,active,inactive
C[C@@H]1CCCCO[C@H](CN(C)S(=O)(=O)c2cccs2)[C@H](C)CN([C@@H](C)CO)C(=O)c2cc(NS(=O)(=O)c3cn(C)cn3)ccc2O1,inactive,inactive,inactive
O=C(N[C@H]1CC[C@@H](CCNS(=O)(=O)c2ccc(F)cc2)O[C@H]1CO)C1CC1,inactive,inactive,inactive
C[C@@H]1CN([C@H](C)CO)C(=O)CCCn2nncc2CO[C@@H]1CN(C)C(=O)Nc1ccc(C(C)(C)C)cc1,inactive,inactive,inactive
COc1ccc(S(=O)(=O)N(C)C[C@@H]2OCCCC[C@H](C)Oc3ccc(NS(=O)(=O)c4ccc(Cl)cc4)cc3C(=O)N([C@H](C)CO)C[C@H]2C)cc1,inactive,active,inactive
CO[C@H]1CN(C)C(=O)c2cc(NC(=O)NC3CCCCC3)ccc2OC[C@H](C)N(CCc2ccccc2)C[C@H]1C,inactive,inactive,inactive
COc1ccc(NC(=O)Nc2ccc3c(c2)C(=O)N([C@@H](C)CO)C[C@@H](C)[C@@H](CN(C)C(=O)NC(C)C)OCCCC[C@@H](C)O3)cc1,inactive,inactive,inactive
O=C(C[C@H]1C[C@@H]2c3cc(NC(=O)NC4CCCC4)ccc3O[C@@H]2[C@@H](CO)O1)NCc1ccc(-c2ccccc2)cc1,active,active,inactive
COc1cccc(-c2ccc3c(c2)O[C@@H](CN(C)C(=O)C2CCOCC2)[C@@H](C)CN([C@@H](C)CO)S3(=O)=O)c1,inactive,inactive,inactive
COCC#Cc1cnc2c(c1)C(=O)N([C@H](C)CO)C[C@@H](C)[C@H](CN(C)C(=O)c1ccc3c(c1)OCO3)O2,inactive,inactive,inactive
C[C@H]1CN([C@@H](C)CO)C(=O)c2cc(NC(=O)Nc3cccc4ccccc34)ccc2O[C@@H]1CN(C)S(=O)(=O)c1ccccc1,inactive,inactive,inactive
CC(C)(C)[S@@+]([O-])N1Cc2cc(C(=O)O)nc(-c3ccc(Br)cc3)c2[C@H]1CCO[Si](C)(C)C(C)(C)C,inactive,inactive,active
C[C@H](CO)N1C[C@H](C)[C@@H](CN(C)S(=O)(=O)c2ccc(F)cc2)Oc2ccc(NS(C)(=O)=O)cc2C1=O,inactive,inactive,inactive
C[C@H]1CN([C@@H](C)CO)S(=O)(=O)c2ccc(C#Cc3ccncc3)cc2O[C@@H]1CN(C)C(=O)C1CCCCC1,inactive,active,inactive
